Relative growth data for 39 molecules are collected here from the supplement of paper PMC9446081.

The structures appear in SMILES notation. Among all 39,000 compounds or so, about 220 (0.56%) showed activity. The list shows a part of the results.
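Also: static incubation at 37 °C against the wild-type strain, values averaged over two biological replicates.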

For this test, the system named is Escherichia coli K-12 BW25113. The test is described as follows: relative growth (OD600 normalised to plate interquartile mean) (fraction); higher = less growth inhibition, active = 0.2 or less. To be noted: 50 µM; LB; incubation time: overnight (16-24 h).
For `Cc1noc(C)c1NC(=O)Nc1ccc2c(c1)CC(=O)N([C@H](C)CO)C[C@H](C)[C@@H](CN(C)S(=O)(=O)c1c(C)noc1C)O2`, the relative growth is inactive: 0.998. Regarding `CN1C(=O)c2cc(NC(=O)c3cccs3)ccc2OC[C@@H]2O[C@@H](CC(=O)NCCN3CCCCC3)CC[C@@H]21`, the relative growth was inactive: 1.01.

As to `C[C@@H]1CN([C@H](C)CO)S(=O)(=O)c2ccc(C#Cc3ccc(F)cc3)cc2O[C@@H]1CN(C)C(=O)CN(C)C`, the relative growth is inactive: 0.954. As for `COc1ccc(NC(=O)N(C)C[C@@H]2OCCCC[C@@H](C)Oc3ccc(NC(=O)NC(C)C)cc3C(=O)N([C@@H](C)CO)C[C@H]2C)cc1`, the figure is inactive: 1.01; as for `CCOC(=O)c1cnn2c(N)c(C#N)cnc12`, inactive: 1; as for `C[C@H](CO)N1C[C@H](C)[C@@H](CN(C)C(=O)Nc2ccc(C(F)(F)F)cc2)Oc2ccc(NC(=O)CCCCCC(=O)Nc3ccccc3N)cc2C1=O`, inactive: 1.01.

For `NC(=O)[C@H]1[C@@H]2C(=O)O[C@@H](c3ccccc3)[C@@H](c3ccccc3)N2[C@@H](c2ccc(OCCO)cc2)[C@]12C(=O)Nc1ccc(C#CC3(O)CCCCCC3)cc12`, the relative growth is inactive: 1.07. With `Cc1ccc(S(=O)(=O)Nc2ccc3c(c2)CC(=O)N([C@H](C)CO)C[C@@H](C)[C@@H](CN(C)C(=O)NC(C)C)O3)cc1`, the relative growth is inactive: 1.01. Under `C[C@@H]1CCCCO[C@H](CN(C)S(=O)(=O)c2cccs2)[C@@H](C)CN([C@@H](C)CO)C(=O)c2cc(NC(=O)C3CCCCC3)ccc2O1` stands inactive: 0.995; under `NCC[C@H]1CC[C@H](NC(=O)NC2CCCCC2)[C@H](CO)O1`, inactive: 0.986. Consider `COc1ccc(-c2oc3cc(O[C@H]4O[C@H](CO)[C@@H](O)[C@H](O)[C@H]4O)c(OC)c(O)c3c(=O)c2OC)cc1O`, for which the relative growth was inactive: 1.01.

Take `C[C@@H]1CN([C@H](C)CO)C(=O)c2cc(NC(=O)CCN3CCOCC3)ccc2O[C@H]1CN(C)S(C)(=O)=O`: the relative growth is inactive: 0.993.

With `CCNC(=O)C[C@@H]1CC[C@H](NC(=O)C2CCOCC2)[C@H](CO)O1`, the relative growth is inactive: 1.01. Consider `C[C@@H]1CCCCO[C@H](CN(C)CC2CC2)[C@H](C)CN([C@@H](C)CO)C(=O)c2cc(NS(C)(=O)=O)ccc2O1`, for which the relative growth was inactive: 1. As to `C[C@H]1CN([C@@H](C)CO)C(=O)Cc2cc(NS(=O)(=O)c3cn(C)cn3)ccc2O[C@@H]1CN(C)C(=O)Nc1ccc(F)cc1`, the relative growth was inactive: 0.982.

In the case of `COc1ccc2nc(Cl)sc2c1`, the relative growth was inactive: 0.975. Under `COc1ccc(S(=O)(=O)N(C)C[C@@H]2OCCCC[C@H](C)Oc3ccc(NC(=O)Nc4cccc5ccccc45)cc3C(=O)N([C@H](C)CO)C[C@@H]2C)cc1` stands inactive: 1.03. Under `C[C@H]1CCCCO[C@H](CN(C)Cc2ccc(Cl)c(Cl)c2)[C@@H](C)CN([C@@H](C)CO)C(=O)c2cc(NS(C)(=O)=O)ccc2O1` stands inactive: 0.992.

With `COC(=O)[C@@H]1N2C(=O)[C@@H](N3CC4=C[C@@H](C5CC5)n5c(=O)n(C)c(=O)n5[C@@H]4[C@@H]3[C@@H](O)Cc3ccccc3)[C@H]2SC1(C)C`, the relative growth was inactive: 0.986. In the case of `COc1ccc2c3c([nH]c2c1)[C@@H](CO)N(C[C@]13CN(Cc2cc(on2)-c2ccccc2)C1)C(=O)Nc1ccc(cc1)F`, the relative growth is inactive: 1. As for `C[C@@H]1CN([C@H](C)CO)C(=O)c2cc(NC(=O)NC3CCCCC3)ccc2O[C@@H](C)CCCCO[C@@H]1CN(C)S(=O)(=O)c1ccccc1`, the figure is inactive: 0.961; as for `C[C@@H]1CN([C@@H](C)CO)C(=O)c2cc(NS(=O)(=O)c3cccs3)ccc2O[C@@H]1CN(C)S(=O)(=O)c1cccs1`, inactive: 1.01. Regarding `C[C@H](CO)N1C[C@H](C)[C@@H](CN(C)Cc2ccc(Oc3ccccc3)cc2)Oc2ccc(NC(=O)Nc3ccccc3)cc2C1=O`, the relative growth was inactive: 0.994. With `C[C@@H]1CN([C@H](C)CO)C(=O)Cc2cc(NC(=O)Nc3ccc4c(c3)OCO4)ccc2O[C@@H]1CN(C)Cc1ccc(C(F)(F)F)cc1`, the relative growth was inactive: 1.02. Consider `COc1ccc(NC(=O)N(C)C[C@H]2OCCCC[C@@H](C)Oc3ccc(NC(=O)Nc4c(C)noc4C)cc3C(=O)N([C@@H](C)CO)C[C@H]2C)cc1`, for which the relative growth is inactive: 1. As to `c1coc(CNc2ncnc3[nH]cnc23)c1`, the relative growth was inactive: 1.12.

Take `CC(C)NC(=O)Nc1ccc2c(c1)C(=O)N([C@@H](C)CO)C[C@H](C)[C@@H](CN(C)C(=O)Nc1ccccc1)OCCCC[C@H](C)O2`: the relative growth is inactive: 1.01.

Turning to `COCc1cn(C[C@H](Cc2ccccc2)NC(=O)N[C@H](CO)CCc2oc(C(=O)N3CCOCC3)c(C(=O)OC)c2C(=O)OC)nn1`, the relative growth is inactive: 0.975. As for `O=C(COc1ccccc1)Nc1nn[nH]n1`, the figure is inactive: 0.98. Turning to `CCOc1nc2c(N)ncnc2n1CC`, the relative growth is inactive: 0.991. As for `C[C@@H]1CN([C@@H](C)CO)C(=O)c2cc(NS(=O)(=O)c3cccs3)ccc2O[C@@H](C)CCCCO[C@@H]1CN(C)CC1CCCCC1`, the figure is inactive: 0.969. Regarding `C[C@@H]1CCCCO[C@H](CN(C)C(=O)Nc2ccc(F)cc2)[C@H](C)CN([C@@H](C)CO)C(=O)c2cc(NC(=O)NC3CCCCC3)ccc2O1`, the relative growth was inactive: 0.975. As for `CCOc1ccc2nc(S(N)(=O)=O)sc2c1`, the figure is inactive: 0.99; as for `C[C@H]1CN([C@@H](C)CO)C(=O)CCCn2nncc2CO[C@H]1CN(C)Cc1cccc2c1OCCCO2`, inactive: 0.992; as for `CN1C(=O)c2cc(NC(=O)c3cnccn3)ccc2OC[C@H]2O[C@@H](CC(=O)NCC3CCCCC3)CC[C@H]21`, inactive: 0.979. Consider `CN1C(=O)c2cc(NC(=O)Cc3cccs3)ccc2OC[C@H]2O[C@@H](CC(=O)NCc3ccc(-c4ccccc4)cc3)CC[C@@H]21`, for which the relative growth was inactive: 0.999.

Consider `C[C@@H]1CCCCO[C@H](CN(C)Cc2ccccc2)[C@@H](C)CN([C@@H](C)CO)C(=O)c2cc(NC(=O)c3ccncc3)ccc2O1`, for which the relative growth is inactive: 1.01.

Consider `O=C(C[C@@H]1C=C[C@H](NC(=O)c2cnccn2)[C@H](CO)O1)NCc1ccccc1F`, for which the relative growth was inactive: 1.03. As for `C[C@H]1CCCCO[C@H](CN(C)S(=O)(=O)c2cccs2)[C@@H](C)CN([C@@H](C)CO)C(=O)c2cc(NS(=O)(=O)c3cn(C)cn3)ccc2O1`, the figure is inactive: 1.01.
